{"source": "the supplement of paper PMC10126150", "note": "Sequences with one replicate were seen in a single cluster, so their values are uncertain.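 Also: ATP exposure 15 min at 22 °C before imaging.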"}
{"test_system": "ATP", "experiment": "switch fluorescence ratio, 500 uM ATP over buffer (Cy3 cluster intensity, sum of 5 cycles each) (fold (ratio)); higher = stronger signal-on switching upon ATP binding; sequences stand for … in TCGTCGGCAGCGTCAGATGTGTATAAGAGACAGTTTTTTTTTTTTTTTTTTTTTTTTT…TC", "details": "aptamer strand: ATP DNA aptamer (quencher-CACCTGGGGGAGTATTGCGGAGGAAGG + anchor), 100 nM annealed; ATP concentration: 500 uM; one replicate", "in_short": "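Cy3-labelled switching-strand clusters on a modified Illumina MiSeq flow-cell were annealed to 100 nM quencher-labelled ATP aptamer, imaged in selection buffer, then imaged after 15 min with 500 uM ATP at 22 °C. Five buffer/ATP cycles ran, with NaOH stripping and re-annealing between them. The fluorescence ratio is summed target-cycle over summed buffer-cycle Cy3 intensity per cluster, averaged per switch-domain sequence. Clusters outside 100-1000 RFU were excluded.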"}
{"sequence": "GGACCACCGA", "switch fluorescence ratio": 1.05}
{"sequence": "GGACCAGTG", "switch fluorescence ratio": 0.94}
{"sequence": "GGACCGAGTA", "switch fluorescence ratio": 1.05}
{"sequence": "GGACCGTCCC", "switch fluorescence ratio": 1.2}
{"sequence": "GGACGACGGG", "switch fluorescence ratio": 1.02}
{"sequence": "GGACGCCGCC", "switch fluorescence ratio": 1.05}
{"sequence": "GGACGCGGAG", "switch fluorescence ratio": 0.986}
{"sequence": "GGACGCGGGA", "switch fluorescence ratio": 1.08}
{"sequence": "GGACGGGCGC", "switch fluorescence ratio": 0.925}
{"sequence": "GGACGGTTGG", "switch fluorescence ratio": 0.988}
{"sequence": "GGACGTTAAA", "switch fluorescence ratio": 1.08}
{"sequence": "GGACTAGAGT", "switch fluorescence ratio": 1.01}
{"sequence": "GGACTCTCGA", "switch fluorescence ratio": 1.01}
{"sequence": "GGACTCTGCC", "switch fluorescence ratio": 1.11}
{"sequence": "GGAGAAACAA", "switch fluorescence ratio": 1.02}
{"sequence": "GGAGAACTTT", "switch fluorescence ratio": 0.995}
{"sequence": "GGAGACAATA", "switch fluorescence ratio": 1.71}
{"sequence": "GGAGAGAAGG", "switch fluorescence ratio": 0.939}
{"sequence": "GGAGATGAAA", "switch fluorescence ratio": 0.99}
{"sequence": "GGAGATTGTT", "switch fluorescence ratio": 1.03}
{"sequence": "GGAGCACGTT", "switch fluorescence ratio": 1.05}
{"sequence": "GGAGCATGAT", "switch fluorescence ratio": 1.32}
{"sequence": "GGAGCCAAAG", "switch fluorescence ratio": 1.03}
{"sequence": "GGAGCCACGT", "switch fluorescence ratio": 1.01}
{"sequence": "GGAGCCATGG", "switch fluorescence ratio": 1.06}
{"sequence": "GGAGCGATTT", "switch fluorescence ratio": 1.62}
{"sequence": "GGAGCTAGAG", "switch fluorescence ratio": 2.83}
{"sequence": "GGAGCTGCGA", "switch fluorescence ratio": 1.05}
{"sequence": "GGAGCTGTTA", "switch fluorescence ratio": 1.01}
{"sequence": "GGAGGAGCTC", "switch fluorescence ratio": 1.05}
{"sequence": "GGAGGCAGTG", "switch fluorescence ratio": 0.971}
{"sequence": "GGAGGCCCTG", "switch fluorescence ratio": 0.997}
{"sequence": "GGAGGCGCCT", "switch fluorescence ratio": 0.96}
{"sequence": "GGAGGGTTGC", "switch fluorescence ratio": 0.882}
{"sequence": "GGAGGTGAGC", "switch fluorescence ratio": 0.971}
{"sequence": "GGAGTAATGA", "switch fluorescence ratio": 2.04}
{"sequence": "GGAGTATATG", "switch fluorescence ratio": 1.02}
{"sequence": "GGAGTATGCT", "switch fluorescence ratio": 1.04}
{"sequence": "GGAGTCCACA", "switch fluorescence ratio": 1.03}
{"sequence": "GGAGTCTGTA", "switch fluorescence ratio": 0.972}
{"sequence": "GGAGTGTCGC", "switch fluorescence ratio": 1.04}
{"sequence": "GGAGTGTTCG", "switch fluorescence ratio": 1.01}
{"sequence": "GGAGTTAGAT", "switch fluorescence ratio": 0.991}
{"sequence": "GGAGTTAGCG", "switch fluorescence ratio": 1.02}
{"sequence": "GGAGTTAGTT", "switch fluorescence ratio": 0.99}
{"sequence": "GGAGTTCCGA", "switch fluorescence ratio": 0.967}
{"sequence": "GGAGTTGATG", "switch fluorescence ratio": 1.04}
{"sequence": "GGAGTTTACA", "switch fluorescence ratio": 0.984}
{"sequence": "GGATAAAGTA", "switch fluorescence ratio": 1.08}
{"sequence": "GGATACAACT", "switch fluorescence ratio": 1.05}
{"sequence": "GGATACATAG", "switch fluorescence ratio": 0.985}
{"sequence": "GGATACATTT", "switch fluorescence ratio": 0.989}
{"sequence": "GGATACCCCG", "switch fluorescence ratio": 1.08}
{"sequence": "GGATAGAGGG", "switch fluorescence ratio": 1.05}
{"sequence": "GGATAGATCC", "switch fluorescence ratio": 1.01}
{"sequence": "GGATCACGTC", "switch fluorescence ratio": 1.02}
{"sequence": "GGATCCGGCA", "switch fluorescence ratio": 1.07}
{"sequence": "GGATCCTAAC", "switch fluorescence ratio": 0.99}
{"sequence": "GGATCGAGAG", "switch fluorescence ratio": 0.986}
{"sequence": "GGATCTAAGG", "switch fluorescence ratio": 1.03}
{"sequence": "GGATCTCGGC", "switch fluorescence ratio": 1.04}
{"sequence": "GGATCTGCAT", "switch fluorescence ratio": 1.41}
{"sequence": "GGATCTGCTG", "switch fluorescence ratio": 0.982}
{"sequence": "GGATGACTGA", "switch fluorescence ratio": 1.03}
{"sequence": "GGATGCAATA", "switch fluorescence ratio": 2.67}
{"sequence": "GGATGCACAT", "switch fluorescence ratio": 1.09}
{"sequence": "GGATGCCCCG", "switch fluorescence ratio": 0.954}
{"sequence": "GGATGCTA", "switch fluorescence ratio": 0.976}
{"sequence": "GGATGGAACG", "switch fluorescence ratio": 1.07}
{"sequence": "GGATGGAAGA", "switch fluorescence ratio": 1.03}
{"sequence": "GGATGGCGTC", "switch fluorescence ratio": 0.984}
{"sequence": "GGATGGGACG", "switch fluorescence ratio": 0.988}
{"sequence": "GGATGGGGAC", "switch fluorescence ratio": 1.04}
{"sequence": "GGATGGGTTC", "switch fluorescence ratio": 0.973}
{"sequence": "GGATGGTGTA", "switch fluorescence ratio": 1.02}
{"sequence": "GGATGTGCTC", "switch fluorescence ratio": 1}
{"sequence": "GGATGTTACG", "switch fluorescence ratio": 1.01}
{"sequence": "GGATGTTGTA", "switch fluorescence ratio": 0.951}
{"sequence": "GGATTAGAGC", "switch fluorescence ratio": 0.98}
{"sequence": "GGATTAGAGG", "switch fluorescence ratio": 0.969}
{"sequence": "GGATTATAG", "switch fluorescence ratio": 0.957}
{"sequence": "GGATTCAATA", "switch fluorescence ratio": 0.99}
{"sequence": "GGATTCGGAG", "switch fluorescence ratio": 1.03}
{"sequence": "GGATTCGGCG", "switch fluorescence ratio": 0.786}
{"sequence": "GGATTCGGCT", "switch fluorescence ratio": 1.08}
{"sequence": "GGATTCTAGA", "switch fluorescence ratio": 0.987}
{"sequence": "GGATTGCAAC", "switch fluorescence ratio": 1.01}
{"sequence": "GGATTGCACT", "switch fluorescence ratio": 1}
{"sequence": "GGATTGCGGG", "switch fluorescence ratio": 0.993}
{"sequence": "GGATTGGTGA", "switch fluorescence ratio": 0.973}
{"sequence": "GGATTTCCAT", "switch fluorescence ratio": 0.99}
{"sequence": "GGATTTGAA", "switch fluorescence ratio": 0.965}
{"sequence": "GGATTTGACG", "switch fluorescence ratio": 1}
{"sequence": "GGATTTGTCT", "switch fluorescence ratio": 0.975}
{"sequence": "GGATTTGTTG", "switch fluorescence ratio": 1.04}
{"sequence": "GGATTTTCAG", "switch fluorescence ratio": 1.02}
{"sequence": "GGCAATGAAT", "switch fluorescence ratio": 0.961}
{"sequence": "GGCACAGGCG", "switch fluorescence ratio": 1.14}
{"sequence": "GGCACAGTGT", "switch fluorescence ratio": 0.985}
{"sequence": "GGCACCCGCT", "switch fluorescence ratio": 1.02}
